ChEMBL document CHEMBL4888484, “Replenishing the malaria drug discovery pipeline: Screening and hit evaluation of the MMV Hit Generation Library 1 (HGL1) against asexual blood stage Plasmodium falciparum ,using a nano luciferase reporter read-out” (2022)
Hit rate of the full screen: of about 150,000 compounds, about 540 (0.36%) showed an effect of 50% or more. This is one part of the list.

Tested on: Plasmodium falciparum
Experiment: Primary screen in NF54 nanoGlo assay, in single point, at 2uM, 72h; a lower Z score goes with more inhibition
Type: functional, Erythrocyte
Conditions: timepoint 72 hour

SMILES	% Inhibition [%]	Z score
C[C@@H](c1ccncn1)N(C)C(=O)NC(C)(C)CN1CCCCCC1	1	-0.19
CC(C)(Cc1cccc(Cl)c1)C(=O)NC[C@H](O)c1ccco1	1	-0.15
Cc1cc(NC(=O)COc2ccc(Cl)cc2C2CCCCC2)[nH]n1	-13	1.71
O=C(c1c(F)cc(F)cc1F)C1CCN(C(=O)c2csnn2)CC1	-11	1.74
Cc1nnc(N2CCC(n3ccnn3)CC2)c(C#N)c1C	-19	2.22
CC[C@H](NC(=O)N(C)CC1(c2ccccc2)CC1)c1c(C)noc1C	-9	1.08
CC[C@@H]1Oc2ccc(NC(=O)Cc3ccc(F)cc3)cc2CN(CCc2ccccc2OC)C1=O	-6	0.57
CCOc1cc(C(=O)Nc2ccccc2-c2ccccc2)ncn1	-1	0.13
Cc1ccc(C(=O)N2CCOC[C@H]2c2ncn(CC(F)(F)F)n2)o1	-3	0.34
CO[C@H]1CCN(C(=O)CN2CCCCCCC2)C1	6	-0.91
CC(C)CN(Cc1c(C(C)C)nn(-c2ccccc2)c1N(C)C)C(=O)NC(C)C	-15	2.43
CCOc1ccc2ccccc2c1C(=O)Nc1cc(C)nn1-c1nc2c(c(=O)[nH]1)CCC2	92	-17
Cc1ccc(CC(=O)N2c3ccccc3N(C)C(=O)C[C@@H]2C)s1	-5	1.1
Cc1ccc(C)c(OCCNC(=O)N2CCO[C@H](C(=O)N(C)C)C2)c1	-15	2.09
C[C@]1(NC(=O)Nc2ncc(C3CCOCC3)s2)CCCOC1	30	-3.38
O[C@]1(C(F)(F)F)CC(c2ccc(Cl)cc2)=NN1c1nc2ccccc2s1	5	-0.68
CC(C)[C@H](CNC(N)=O)Cc1ccccc1	-4	0.46
O=C(NCCc1ccco1)c1cc(Cc2ccccc2)no1	-13	2.64
c1ccc(Oc2cccc(-c3noc(CC4OCCCO4)n3)c2)cc1	-3	0.46
COCCNC(=O)c1ccc(-c2ccc(OC)cc2-n2nc(C)cc2C)o1	-7	1.43
Cc1ccc(OCc2nc(CC(=O)NCCc3ccccc3)cs2)cc1C	-23	4.5

SMILES	% Inhibition [%]	Z score
Cc1cccc(C[C@H]2CC(=O)N(c3nc4ccccc4s3)C2=O)c1	-5	0.69
CC(C)COc1nc(-c2ccccc2F)n(-c2ccc(NC(=O)c3ccc(-c4ccccc4)cc3)cc2)n1	6	-0.73
CC(C)/C=C(/C(=O)c1ccc(Cl)cc1Cl)n1cncn1	-1	0.13
c1cncc(CNc2nc3ccccc3s2)c1	-14	1.32
CCc1nsc(N2CC[C@@H](O)[C@H]2c2ccc(Cl)cc2)n1	3	-0.54
Cc1cc(C(=O)N2CCO[C@@H](C)C2)c2c(Br)cccc2n1	1	-0.24
CC(O)[C@@H]1N[C@@]2(C(=O)Nc3c(Cl)cccc32)[C@H]2C(=O)N(CC3CCCO3)C(=O)[C@@H]12 (some centres undefined)	-3	0.33
Cc1cccc2c3c([nH]c12)CCN(C[C@H]1CCCO1)C3	-4	0.72
Cc1nc2c(C#N)cnn2c(O)c1CC(=O)Nc1ccc(OCC(F)(F)F)cc1	-4	0.5
O=C(NCCc1nccs1)C(=O)Nc1c(F)cccc1F	-14	1.78
COCCO[C@H]1CN(C2CCN(C(=O)c3ccc4cc[nH]c4c3)CC2)C12CCCCC2	5	-0.79
CC(CNCC(C)(O)c1cnn(C)c1)c1cccc(Cl)c1 (centres undefined)	1	-0.2
O=S(=O)(Nc1nccn2ccnc12)c1ccc(F)c(Cl)c1	-4	0.47
Cc1ccc(O)c(C2=NO[C@](O)(C(F)(F)F)C2)c1	-19	2.43
COC1(C)CC(NC(=O)N2CCC3(CCOC3)C2)C1(C)C (centres undefined)	-8	0.85
CC1(CCCN2C(=O)c3ccccc3C2=O)OCCO1	0	0.02
CCCOCC(=O)N1C[C@H](O)[C@@H](F)C1	-8	0.76
CO[C@H]1CN(C(=O)C(C)(C)c2ccccc2)C[C@H]1OC	1	-0.05
Cc1ccnc(N(C(=O)CCCN2C(=O)c3ccccc3C2=O)C(=O)CCCN2C(=O)c3ccccc3C2=O)n1	-8	0.83
CC1CC(c2cccc(F)c2)N(C(=O)CCC2NC(=O)NC2=O)C1 (centres undefined)	-1	0.11
O=C(NC1CCOCC1)N1CC[C@H](c2ccsc2)C1	-25	3.17
